# Experimental data from PubChem BioAssay AID743279 (National Center for Advancing Translational Sciences (NCATS), 2014).
# The campaign covered roughly 360,000 compounds. About 17,000 (4.7%) were called active. The shares of active, inactive and inconclusive entries below differ from those in the screen. Rule as the data show it: active = activity change below about -50%; inconclusive = mostly about -30% to -49%; inactive = weaker than that.
# Assay: qHTS for Inhibitors of Inflammasome Signaling: IL-1-beta AlphaLISA Primary Screen
# Details: THP-1 LPS/ATP IL-1B secretion, 16 h; at 57.5 µM, hits give low values
# How it was run: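 Secreted IL-1B measured by AlphaLISA bead assay after 16 h compound exposure of THP-1 cells; compounds (final up to 57.5 uM) added 1 h before LPS (250 ng/mL) and ATP (1.25 mM) stimulation; lower signal means less secretion.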
# % is scaled to controls: 0 for no effect and ±100 for the full control effect.
row,Compound,activity change
1,CN1CCN(C2Cc3ccccc3Sc3cc(C(F)(F)F)ccc32)CC1 (centres undefined),active: -97.6%
2,Cc1cc(C)n(CC(O)Cn2c3ccccc3c3ccccc32)c(=O)n1 (centres undefined),inconclusive: -45.7%
3,CCOc1ccccc1N=Cc1c(O)c2ccccc2oc1=O,inconclusive: -31.5%
4,Cc1cccc(NCC(=O)N/N=C/c2cccc(Br)c2)c1,inconclusive: -38.3%
5,Nc1ccc2c(c1)nnn2-c1ccccc1,active: -79.2%
6,CCNc1nc(NC(C)(C)C)nc(N2CCCCC2)n1,active: -81.4%
7,Cc1ccc(C(=O)c2cncc(Br)c2)cc1,inconclusive: -46.6%
8,Cc1ccccc1S(=O)(=O)Cc1ccc(C(=O)NCc2ccco2)o1,inconclusive: -43.1%
9,O=C(O)c1cccc2c1Cc1cc([N+](=O)[O-])ccc1-2,inconclusive: -41%
10,COc1cccc(NC(=O)c2cccc(S(=O)(=O)N3CCN(Cc4ccccc4)CC3)c2)c1,inconclusive: -38.9%
11,CCOC(=O)C1CCN(S(=O)(=O)c2ccc3c(c2)CC(=O)N3C)CC1,inconclusive: -35.5%
12,Nc1ccccc1C(=O)N1CCCC1,inactive: 6.82%
13,COc1ccc(CN(C)C(=O)c2ccccc2OCc2c(C)noc2C)c(OC)c1,inactive: 34.4%
14,Cc1cc(C)n(/N=C/c2ccco2)c(=O)c1C#N,inconclusive: -40%
15,Nc1ncnc2c1ncn2[C@@H]1O[C@H](CNCC#Cc2ccccc2)[C@@H](O)[C@H]1O,inconclusive: -36%
16,CS(=O)(=O)N1N=C(c2cccs2)CC1c1ccc(F)cc1 (centres undefined),inactive: 2.78%
17,CN(C)CCNC(=O)C(=O)NCC1OCCN1S(=O)(=O)c1ccc(F)cc1 (centres undefined),inactive: 3.94%
18,Cc1ccc(Nc2nc(-c3ccc(S(=O)(=O)N4CCCC4)cc3)cs2)cc1C,inconclusive: -32.9%
19,CCCC(C)NC(=O)c1ccc2[nH]c3c(c2c1)CC(C)CC3 (centres undefined),inconclusive: -30.6%
20,O=C(NC(NNc1ccc([N+](=O)[O-])cc1)(C(F)(F)F)C(F)(F)F)c1ccc(Cl)cc1,inconclusive: -36.2%
21,CCCn1c(N)c(C(=O)CSc2nc(C)nc3sc(C)c(C)c23)c(=O)[nH]c1=O,inactive: 21.9%

row,Compound,activity change
1,CCc1nc2c(OCCC3CCCCC3)cccn2c1N(C)C(=O)C(C)C,inconclusive: -34.8%
2,Cc1ccccc1C(=O)NC(NC(=S)Nc1ccc(S(N)(=O)=O)cc1)C(Cl)(Cl)Cl (centres undefined),inactive: -27%
3,Cc1cc(C)c(S(C)(=O)=O)c(NN)n1,active: -62.1%
4,CC[C@@H]1Cc2[nH][nH]c(=O)c2[C@H](c2ccc(Cl)cc2)O1,inactive: -1.65%
5,Cc1ccccc1OCCNc1cc(N2CC(C)NC(C)C2)ccc1[N+](=O)[O-] (centres undefined),inconclusive: -30.6%
6,O=C(NCc1cc(C(F)(F)F)cc(C(F)(F)F)c1)C1CC(c2ccc(C(F)(F)F)cc2)=NO1 (centres undefined),inconclusive: -30.1%
7,CCC/C=C1/CCCOC(C(=O)NCc2ccc(C)o2)(C(F)(F)F)C1 (centres undefined),active: -62.7%
8,O=S(=O)(c1ccccc1Cl)N1CCCC1c1nc(-c2cccc(Cl)c2)no1 (centres undefined),inactive: 12.8%
9,C#CCOCCOCCOCCNc1nc(N2CCN(C(=O)CCCCCCCCCCNC(=O)Cn3cc(C[C@@H](C)O)nn3)CC2)nc(N2CCN(C(=O)CCCCCCCCCCNC(=O)[C@@H](CCC(=O)O)n3cc(CCCCCN)nn3)CC2)n1,inconclusive: -45.8%
10,CC(C)CNC(=S)N(CCCN(C)C)Cc1cc2cc3c(cc2[nH]c1=O)OCCO3,inconclusive: -49.5%
11,COc1cc(/C=N/NC(=O)c2cc(C3CC3)[nH]n2)cc(OC)c1OC,inconclusive: -33.8%
12,C=CCc1ccc(OCC(O)CN2CCN(c3ccccc3OC)CC2)c(OC)c1 (centres undefined),inconclusive: -30.7%
13,Cn1cccc1Cc1nnc(SCC(=O)NCc2ccccc2)n1-c1ccc(F)cc1,inconclusive: -33%
14,OC[C@@H]1[C@@H](c2ccccc2)C(c2cccc(Cl)c2)=NN1c1ccccc1,inconclusive: -40.1%
15,CC[n+]1c(/C=C2/C=C(C)CC(C)(C)C2)sc2ccc(OC)cc21,active: -112%
16,Cc1ccccc1-c1nn(-c2ccc(F)cc2F)cc1CNCCN(C)C,inconclusive: -31.5%
17,COC(=O)N/N=C\c1ccc(OC/C=C/c2ccccc2)c(OC)c1,inconclusive: -46.8%
18,Oc1ccc(C[C@@H]2CNCCN2CC2(c3ccccc3)CC2)cc1,inconclusive: -49.5%
19,COc1ccc(S(=O)(=O)NCc2ccccn2)cc1C,inactive: -24%
20,COc1ccc(N2C3=C(CC4=C2CC(C)(C)CC4=O)C(=O)CC(C)(C)C3)cc1,active: -102%
21,Cc1c(Cl)cccc1NC(=S)NCc1ccccc1,inconclusive: -40.8%

row,Compound,activity change
1,Cc1cccc(-n2cnc3cc(C(=O)NCC4CCCO4)ccc32)c1 (centres undefined),inconclusive: -32.7%
2,COc1ccc(/C=C/C(=O)OCC(=O)Nc2cccc(S(=O)(=O)NC3=NCCCCC3)c2)cc1,active: -69.6%
3,O=C1C(=Cc2cn(-c3ccccc3)nc2-c2ccc(OCc3ccc(Cl)cc3)cc2)SC(=S)N1CCS(=O)(=O)O,inconclusive: -36.9%
4,CCc1ccc(NC(=O)c2cc3c(C)nc4ccccc4c3o2)cc1,active: -139%
5,Cn1cc(CN2CCC(C(O)c3cccs3)CC2)c(-c2cccc(Cl)c2)n1 (centres undefined),inconclusive: -35.9%
6,O=C(Nc1ccccc1N1CCCC1)C1CCN(S(=O)(=O)c2cccc(C(F)(F)F)c2)CC1,inconclusive: -38.3%
7,CNC(=S)Nc1ccc(-c2nc3ccc(C)cc3s2)cc1,inconclusive: -38.1%
8,O=C(c1ccccc1Nc1ccc(SC(F)F)cc1)N1CCCCC1,inconclusive: -32.2%
9,CN(C(=O)COC(=O)CNC(=O)CNC(=O)c1ccc(Cl)cc1Cl)c1ccccc1,active: -143%
10,O=C(NC1CCN(C(=O)Nc2ccc(F)cc2)CC1)c1cccc(F)c1,inactive: 8.92%
11,COCCNC(=S)N1CCN(c2nc(-c3cccc(OC)c3)cs2)CC1,inactive: 17.3%
12,COCCN1C(=O)/C(=C/c2ccc(Oc3ccc([N+](=O)[O-])cn3)c(OC)c2)SC1=Nc1ccccc1,inconclusive: -36%
13,COc1cccc(CNC(=O)CCC2CCCN(C(=O)c3cc4ccccc4o3)C2)c1 (centres undefined),active: -90.4%
14,CC1CCCN(C(=O)C2CCN(CCCc3ccccc3)CC2)C1 (centres undefined),inactive: -10.6%
15,CC(C)C[C@H]1CN([C@@H](Cc2ccccc2)CN2CCC[C@@H]2CN2C(=O)C(=O)NC[C@@H]2Cc2ccccc2)C(=O)C(=O)N1CC1CCCCC1,active: -58.7%
16,CCCCCc1cc(=O)oc2c(C(CCN(CC)CC)c3cc(OC)c(OC)c(OC)c3)c(OC)cc(OC)c12 (centres undefined),inconclusive: -40.3%
17,Brc1ccc(Oc2nnnn2-c2ccccc2)cc1,inconclusive: -42.5%
18,COC1=C(C)C(O)=C(C(=O)/C=C/c2ccccc2)C(=O)C1(C)C,inconclusive: -49%
19,O=C(NNC(=O)c1cc2ccccc2o1)c1ccc(F)cc1,inactive: -6.86%
20,Cc1ccc(NC(=S)NCc2ccc3c(c2)OCO3)c(C)c1,inconclusive: -39.6%
21,Cn1c(CSCc2ccc(Cl)cc2)nnc1SCC(=O)Nc1nc2ccccc2s1,inactive: 23.4%

row,Compound,activity change
1,C=C(C)C(=O)O[C@H]1C/C(C)=C\C(=O)/C=C(\C)[C@H](O)[C@@H]2OC(=O)C(=C)[C@@H]21,inconclusive: -45.1%
2,COCCCNC(=S)N1CCN(c2nc(-c3ccc(F)cc3)cs2)CC1,inconclusive: -40.8%
3,Cc1ccc(CNC(=O)C2CCCN(Cc3cnn(-c4ccccc4)c3-n3cccc3)C2)cc1 (centres undefined),inconclusive: -31.6%
4,Cn1nc(C(=O)Nc2ccc(-n3cnnn3)cc2)c2ccccc2c1=O,inconclusive: -34.4%
5,S=c1[nH]c2ccccc2n1CCc1ccncc1,active: -61.3%
6,COC(=O)[C@]12CCCCC=C1N(CCc1ccc(OC)c(OC)c1)C(=O)[C@H](CC(=O)NCCc1ccccc1OC)C2,inconclusive: -35.9%
7,Cc1ccc(-c2nnn(CC(=O)N(c3ccccc3)C(C(=O)NCC3CCCO3)c3ccc(Cl)cc3)n2)cc1 (centres undefined),inconclusive: -33.3%
8,Cc1ccc(OCC(=O)N2CCc3ccccc3C2)c(C)c1,inconclusive: -48.2%
9,O=S(=O)(c1ccccc1)N(CC1CO1)c1cc(Cl)ccc1Cl (centres undefined),active: -85.8%
10,CC(C)S(=O)(=O)c1csc(NC(=O)Nc2ccc(Cl)cc2)c1,inconclusive: -39.7%
11,CC(=NNC(=S)N1CCN(C2CCCCCC2)CC1)c1ccccn1,active: -97.8%
12,CC(=O)C[C@H]1c2cc(C(F)(F)F)ccc2S(=O)(=O)N1C1CCCCC1,inconclusive: -40.7%
13,CCOc1ccc2[nH]c(=O)c(CN(Cc3cccnc3)C(=O)Nc3ccccc3OC)cc2c1,inconclusive: -40.4%
14,Fc1ccc(/C=N/Nc2nccnc2Cl)cc1,inconclusive: -48.3%
15,O=C(N/N=C/c1ccccc1)c1n[nH]c2c1CCCC2,inconclusive: -34.8%
16,CCC(C)(C)NC(=O)CN(C(=O)CNS(=O)(=O)c1ccccc1)c1ccccc1,inconclusive: -30.9%
17,CSc1ccc(CN2CCC(C)(Oc3ccc(F)cc3)C2)cc1 (centres undefined),inactive: 3.01%
18,Cc1c(C(=O)NCc2ccc([N+](=O)[O-])cc2)sc(=O)n1Cc1ccc(-c2ccccc2)cc1,inconclusive: -33.4%
19,Cc1cc(/C=N/NC(N)=S)c(C)n1-c1cccc(Cl)c1,inactive: 82.2%
20,COc1ccccc1CNC(=O)CNCCc1ccc(OC)c(OC)c1,inconclusive: -31.7%
21,COc1cc(Br)cc(C=Nc2cccc(C(F)(F)F)c2)c1O,active: -50.3%
